According to PubChem BioAssay AID1645882 (National Center for Advancing Translational Sciences (NCATS), 2021):
The campaign covered roughly 16,000 compounds. About 120 (0.75%) were called active. Not shown: some 4% with an inconclusive outcome. Calls follow the shape of the dose curve; as a rule, active = well fitted inhibition curve with a large enough effect; inconclusive = small, poorly fitted or top-dose-only effect; inactive = no such curve, though single readings can be large or run the other way. The list shows a part of the results.

biological target: Rap guanine nucleotide exchange factor 3 (Homo sapiens) (UniProt O95398); test: Validation qHTS for antagonist of cAMP-regulated guanine nucleotide exchange factor 3 (EPAC1); details: EPAC1 Rap1B-BODIPY-GDP exchange, fluorescence; series mostly up to 150 µM; activity change, negative = inhibition: at the top concentration;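 also: plate controls were DMSO for no effect and ATA control for full effect; nearly all actives have a fitted effect of over 75% in size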
UniProt O95398, sequence (O95398 whole entry, looked up): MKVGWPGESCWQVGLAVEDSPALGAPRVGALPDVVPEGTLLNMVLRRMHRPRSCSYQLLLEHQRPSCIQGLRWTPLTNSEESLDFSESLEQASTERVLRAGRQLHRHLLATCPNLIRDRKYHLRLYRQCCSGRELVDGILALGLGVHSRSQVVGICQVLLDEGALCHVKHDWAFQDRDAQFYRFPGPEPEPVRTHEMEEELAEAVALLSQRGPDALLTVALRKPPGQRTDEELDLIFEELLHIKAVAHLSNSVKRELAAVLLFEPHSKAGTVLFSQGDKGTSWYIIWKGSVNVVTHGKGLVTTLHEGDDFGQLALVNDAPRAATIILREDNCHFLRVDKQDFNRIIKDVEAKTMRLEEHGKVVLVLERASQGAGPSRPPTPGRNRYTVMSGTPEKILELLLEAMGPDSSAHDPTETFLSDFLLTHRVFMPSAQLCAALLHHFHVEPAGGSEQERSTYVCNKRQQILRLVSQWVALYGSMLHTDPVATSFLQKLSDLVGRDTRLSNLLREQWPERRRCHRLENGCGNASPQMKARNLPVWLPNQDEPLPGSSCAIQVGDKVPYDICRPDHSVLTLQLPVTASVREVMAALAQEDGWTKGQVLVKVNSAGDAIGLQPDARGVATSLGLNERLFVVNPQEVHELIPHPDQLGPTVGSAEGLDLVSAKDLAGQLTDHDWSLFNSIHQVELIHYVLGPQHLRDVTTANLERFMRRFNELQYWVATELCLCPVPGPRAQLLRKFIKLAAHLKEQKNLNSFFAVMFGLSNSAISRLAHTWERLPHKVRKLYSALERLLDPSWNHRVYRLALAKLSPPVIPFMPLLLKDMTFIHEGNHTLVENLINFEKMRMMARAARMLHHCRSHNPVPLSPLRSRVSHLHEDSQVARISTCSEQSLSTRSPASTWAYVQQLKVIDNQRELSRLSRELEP
Outline: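 EPAC1 (100 nM) mixed with 250 nM RAP1B-BODIPY-GDP and 50 uM GDP; compounds in concentration series, 5 min at room temperature. Fluorescence (ex 480/em 540 nm) read every 5 min for 30 min; normalized to ATA control and DMSO.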

Activity change, negative = inhibition, inactive:
C#C[C@]1(O)CC[C@H]2[C@@H]3CCc4cc(O)ccc4[C@H]3CC[C@@]21C 4.15%
CC(=O)N[C@@H](C)C(=O)NCC1Cc2cccc(-c3ccccc3C(F)(F)F)c2O1 (some centres not stated) 13.1%
CC(=O)OC1CC2C(C)(C)C=CC(=O)[C@@]2(C)C2CC[C@@]3(C)C(c4ccoc4)OC(=O)C4OC43[C@]12C (some centres not stated) -8.97%
CCNc1ncc2nc(-c3ccccc3)c(=O)n(-c3ccc(OC)cc3)c2n1 18.3%
Cc1ccccc1C1(CC(=O)N2CCCCC2c2cccnc2)CC(=O)N(C2CCCC2)C1=O (configuration not stated) -21.5%
C=CCCCCCCCCCCCC(O)CC(O)COC(C)=O (configuration not stated) (tested in a mixture with another compound) -29.3%
N#Cc1ccc(CN2CCCC3(CCN(C(=O)c4cnccn4)CC3)C2)cc1 8.39%
CC(C(=O)O)c1cccc(C(=O)c2ccccc2)c1 (configuration not stated)
Nc1nc(N)c2nc(CNc3ccc(C(=O)N[C@@H](CCC(=O)O)C(=O)O)cc3)cnc2n1 13.1%
CC1(C)OC2C(CO)OC(n3cnc4c(=O)[nH]cnc43)C2O1 (configuration not stated) 18.8%
COC(=O)N1CCC2(CC1)CCN(C(c1ccccc1)c1ccccc1)CC2 4.62%
CC(=O)Nc1ccc(/C=N/NC(N)=S)cc1
O=C(O)Cc1ccc(OCCNC[C@H](O)c2ccccc2)cc1 28.3%
COc1ccccc1-c1cncnc1NCc1ccccc1 0.645%
COc1ccccc1N1CCN(c2nc(CNC(=O)c3cc(C)oc3C)nc3ccccc23)CC1 13.7%
O=C(NCC1Cc2cccc(-c3ncccn3)c2O1)c1cccc(-c2ccccc2F)c1 (configuration not stated) -6.89%
Cn1c(=O)cnc2cnc(Nc3ccccc3)nc21 11.8%
COc1cccc(Nc2ncc3nc(C)c(=O)n(CCc4ccccc4)c3n2)c1 10.9%
COc1ccccc1CNc1cc(-c2ccccc2C)ncn1 -6.35%
O=C(c1ccncc1)N1CCC2(CC1)CCN(C(c1ccccc1)c1ccccc1)CC2 10.5%
CC1O[C@@H](O[C@H]2C(Oc3cc(O)c4c(c3)OC(c3ccc(O)cc3)CC4=O)OC(CO)C(O)C2O)C(O)C(O)C1O (some centres not stated) 18%
CCNc1ncc2nc(-c3ccc(Cl)cc3)c(=O)n(Cc3ccc(F)cc3)c2n1 19%
CCN1CCCC1CNC(=O)c1cnn(-c2nccc(-c3cc(OC)ccc3OC)n2)c1C (configuration not stated) 4.08%
CN(C)C(=O)c1ccc(-c2ccc3ncnc(NCc4cccnc4)c3c2)cc1 15.8%
N#Cc1cccc(NC(=O)N2CCCC3(CCN(C(=O)c4ccco4)CC3)C2)c1 43%
COCCNc1ncnc2ccc(-c3cccc(OC)c3)cc12 -0.812%
CC(O)COc1ccccc1 (configuration not stated) -6.99%
O=C1O/C(=C/Br)CCC1c1cccc2ccccc12 (configuration not stated) -7.67% [at 75.8 µM]
O=CN1CCCN(C(=O)c2cc(NC(=O)c3ccccc3)cc3ncn(C4CCCC4)c23)CC1 -1.61%
COc1ccc(CCNc2ncnc3sc(C(=O)N4CCCC4)c(C)c23)cc1OC 6.93%
O=C(Nc1ccc(C(F)(F)F)cc1[N+](=O)[O-])O[C@H]1[C@H](Cc2ccccc2)NS(=O)(=O)[C@H]2C[C@@H]3C=C[C@]12O3 0.549%
CN1CCN(c2ncc3nc(-c4cc(F)cc(F)c4)c(=O)n(CCc4ccccc4)c3n2)CC1 13.7%
COC(=O)N1CCC[C@@]2(CCN(Cc3nccs3)C2)C1 31.6%
CC(C)NC(=O)N1CC2(CCN(C(=O)c3ccncc3)CC2)C1 29.4%
CCC1CN(CCNC(=O)c2ccccc2-n2cccn2)Cc2cc(OC)ccc2O1 (configuration not stated) 21.6%
Cc1ccc(CN2C[C@@H](Sc3nc(C)cc(C)n3)C[C@H]2C(=O)N2CCN(c3ccccc3F)CC2)cc1 -6.82%
COc1ccc(CN2[C@@H](CC(=O)O)c3cc(C(F)(F)F)ccc3S2(=O)=O)cc1 -8.45%
Cc1cc(C)c(NC(=O)CN(CC(=O)O)CC(=O)O)c(C)c1Br 6.91%
CO/S(=N\S(=O)(=O)c1ccc(Cl)cc1)c1ccc([N+](=O)[O-])cc1 (configuration not stated) 4.9% [at 75.8 µM]
COc1ccc(-c2c(-c3ccc4c(c3)OCO4)noc2C)cn1 -4.31%
O=C(c1csnn1)N1CCC2(CC1)CN(c1ccccc1)C2 12.3%
CC1=C(/C=C/C(C)=C/C=C/C(C)=C/C=C/C=C(C)/C=C/C=C(C)/C=C/C2=C(C)C(=O)CCC2(C)C)C(C)(C)CCC1=O 6.97%
C=C1CC[C@H](O)C/C1=C/C=C1\CCC[C@]2(C)C([C@H](C)CCCC(C)(C)O)CC[C@@H]12 (some centres not stated)
CC(C)(S)C(=O)N[C@@H](CS)C(=O)O
COc1ncc2nc(C)c(=O)n(Cc3cccs3)c2n1 18.4%
COc1cc(=O)n2c(c1C(=O)NCc1nonc1C)CCN(C(=O)c1cccc(C)c1C)CC2 1.64%
CC(=O)OC1C[C@]2(C)[C@@H](CC(O)C3[C@]4(C)CCC(O)C(C)[C@@H]4CC[C@]32C)/C1=C(/CCC=C(C)C)C(=O)O (some centres not stated) 19%
COc1ccc(-c2oc3ccc(C)cc3c(=O)c2O)cc1OC 5.13%
CCNc1ncc2nc(-c3cn(C)c4ccccc34)c(=O)n(Cc3ccc(F)cc3)c2n1 -2.55%
NCC(O)(CS(=O)(=O)O)c1ccc(Cl)cc1 (configuration not stated) -10.2% [at 75.8 µM]
C[C@@H](N)C1CCC(C(=O)Nc2ccncc2)CC1 (some centres not stated)
CC[C@H](NC(=O)c1c(C)c(-c2ccccc2)nc2ccccc12)c1ccccc1 15.2% [at 75.8 µM]
CCOC(=O)c1ncn2c1CN(C)C(=O)c1cc(F)ccc1-2
O=NN(CCCl)C(=O)NCCCl
CN1[C@@H]2CC[C@H]1CC(OC(=O)c1c[nH]c3ccccc13)C2 (some centres not stated) 3.58%
CCCCCCCCCCCCCCCCCCOCC(COP(=O)([O-])OCC[N+](C)(C)C)OC (configuration not stated) 3.62%
COc1ccccc1CNc1cc(-c2cccc(C#N)c2)ncn1 7.87%
Cc1cc(C)nc(S[C@H]2C[C@@H](C(=O)N3CCN(c4ccccc4F)CC3)N(Cc3ccccc3C(F)(F)F)C2)n1 -3.21%
OC1C2COC(O2)[C@H](O)C1O (some centres not stated) 8.9%
COc1cccc(Cn2c(=O)c(-c3ccc(Cl)cc3)nc3cnc(N(C)C)nc32)c1 2.19%
CCCCN1CC[C@H]2C=CC[C@@H](C(=O)N3CCOCC3)[C@H]2C1=O -0.486%
Cc1onc(-c2ccccc2)c1C(=O)N[C@@H]1C(=O)N2[C@@H](C(=O)O)C(C)(C)S[C@@H]12 27%
